# Measured values taken from the antibiotic and cytotoxicity screens of Wong et al. (2023).
# Some of the results follow.
# Columns and labels:
# [1] = tested on: HSkMC (human skeletal muscle cells); assay: cytotoxicity call (relative viability < 0.9); details: 10 µM
# [2] = tested on: HepG2; assay: cytotoxicity call (relative viability < 0.9); details: 10 µM
# [3] = tested on: S. aureus RN4220; assay: growth inhibition call (relative growth <= 0.2); details: 50 µM
Compound,cytotoxicity call [1],cytotoxicity call [2],growth inhibition call [3]
CC(C)NC(=O)N(C)C[C@H]1Oc2ccc(NC(=O)CCCN(C)C)cc2C(=O)N([C@@H](C)CO)C[C@@H]1C,inactive,inactive,inactive
COc1ccc(S(=O)(=O)N(C)C[C@H]2OCCCC[C@H](C)Oc3ccc(NC(=O)Nc4ccc(F)cc4)cc3C(=O)N([C@H](C)CO)C[C@H]2C)cc1,inactive,inactive,inactive
COc1ccc2c3c(n(c2c1)C)[C@@H](CO)N(Cc1ccccc1)C[C@]13CCN(CC1)C(=O)Nc1cccc(c1)F,inactive,inactive,inactive
Cc1noc(C)c1NC(=O)Nc1ccc2c(c1)C(=O)N([C@@H](C)CO)C[C@@H](C)[C@@H](CN(C)Cc1ccccc1)OCCCC[C@@H](C)O2,inactive,inactive,inactive
C[C@H](CO)N1C[C@H](C)[C@H](CN(C)S(=O)(=O)c2cn(C)cn2)Oc2ncc(-c3ccccc3)cc2C1=O,inactive,inactive,inactive
COc1ccc(NC(=O)Nc2ccc3c(c2)C(=O)N([C@H](C)CO)C[C@@H](C)[C@H](CN(C)C(=O)Nc2ccc(C(F)(F)F)cc2)O3)cc1,inactive,inactive,inactive
C[C@H](CO)N1C[C@H](C)[C@H](CN(C)C(=O)Nc2cccc3ccccc23)Oc2ccc(NC(=O)Nc3cccc4ccccc34)cc2CC1=O,inactive,inactive,inactive
CC(C)NC(=O)N[C@H]1C=C[C@H](CC(=O)NCCN2CCCC2)O[C@H]1CO,inactive,inactive,inactive
C[C@H]1CN([C@@H](C)CO)C(=O)c2cc(NC(=O)CCN3CCOCC3)ccc2O[C@@H]1CN(C)Cc1ccc2c(c1)OCO2,inactive,inactive,inactive
C[C@@H]1CN([C@H](C)CO)C(=O)c2cc(NC(=O)c3ccccc3)ccc2O[C@@H](C)CCCCO[C@@H]1CN(C)Cc1ccc(Cl)c(Cl)c1,inactive,active,inactive
C[C@H](CO)N1C[C@H](C)[C@H](CN(C)C(=O)Nc2ccc(C(F)(F)F)cc2)Oc2ncc(C#C[C@@H](C)O)cc2C1=O,inactive,inactive,inactive
CCNC(=O)c1cc2c(c(-c3cccc(-c4cc5ccccc5o4)c3)n1)[C@@H](CCO)N(C(=O)NC(C)C)C2,inactive,inactive,inactive
C[C@@H]1CN([C@H](C)CO)C(=O)c2cccc(NC(=O)Nc3cccc4ccccc34)c2O[C@H]1CN(C)S(=O)(=O)c1ccc(Cl)cc1,inactive,inactive,inactive
O=C(CCCCCCC(=O)Nc1ccc(C(=O)NCCOCCOCCNC(=O)c2ccc(NC(=O)CCCCCCC(=O)NO)cc2)cc1)NO,inactive,inactive,inactive
C[C@@H]1CN([C@@H](C)CO)C(=O)CCCn2cc(nn2)CO[C@@H]1CN(C)S(=O)(=O)c1ccccc1C#N,inactive,inactive,inactive
CS(=O)(=O)N1CCC(CN)CC1,inactive,inactive,inactive
COc1cc2c(cc1OC)CN(C[C@H]1C[C@H](c3ccccc3)O[C@H](c3ccc(NC(=O)CCCCCCC(=O)NO)cc3)O1)CC2,active,active,inactive
COc1ccc(CN(C)C[C@H]2OCCCC[C@H](C)Oc3ccc(NC(=O)Nc4ccc(OC)cc4)cc3C(=O)N([C@@H](C)CO)C[C@@H]2C)cc1,inactive,active,inactive
C[C@@H]1CN([C@@H](C)CO)S(=O)(=O)c2ccc(-c3cncnc3)cc2O[C@@H]1CN(C)C(=O)Cc1ccccc1,inactive,inactive,inactive
C[C@@H]1CCCCO[C@@H](CN(C)C(=O)Nc2ccc3c(c2)OCO3)[C@@H](C)CN([C@H](C)CO)C(=O)c2cc(NS(=O)(=O)c3ccccc3)ccc2O1,inactive,inactive,inactive
C[C@H]1CN([C@@H](C)CO)C(=O)c2c(c3ccccc3n2C)-c2ccccc2CO[C@@H]1CN(C)Cc1ccc2c(c1)OCO2,inactive,inactive,inactive
Cn1cnc(S(=O)(=O)N2C[C@@H](O)COC[C@H]3O[C@H](CC(=O)NC4CCCC4)CC[C@@H]32)c1,inactive,inactive,inactive
COc1ccc(C#Cc2ccc3c(c2)[C@]2(C(=O)N3)[C@H](C(=O)Nc3nc4ccccc4s3)[C@H]3C(=O)O[C@H](c4ccccc4)[C@H](c4ccccc4)N3[C@@H]2c2ccccc2OCCO)cc1,inactive,inactive,inactive
Cc1ccc(S(=O)(=O)N(C)C[C@@H]2Oc3c(NS(=O)(=O)c4ccccc4)cccc3C(=O)N([C@H](C)CO)C[C@H]2C)cc1,inactive,inactive,inactive
